# Laboratory results published in article PMC7819943, “Rice protein-binding microarrays: a tool to detect cis-acting elements near promoter regions in rice”.
# Some of the results follow.
# Biological target: T1, OsWOX13 (Oryza sativa, UniProt Q5QMM3 1-267)
# T1 sequence: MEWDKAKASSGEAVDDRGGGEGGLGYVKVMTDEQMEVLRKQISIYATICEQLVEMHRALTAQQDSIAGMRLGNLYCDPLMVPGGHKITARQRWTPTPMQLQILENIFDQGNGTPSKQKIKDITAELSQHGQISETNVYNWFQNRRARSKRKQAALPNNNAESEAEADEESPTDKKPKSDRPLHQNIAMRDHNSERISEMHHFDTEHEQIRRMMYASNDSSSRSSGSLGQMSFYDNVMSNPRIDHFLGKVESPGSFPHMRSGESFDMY
# Assay: protein-binding microarray (RPBM); PBS, 2% BSA, 51.3 ng/ul salmon testes DNA, 50 uM zinc acetate, 200 nM TF, 25 C, 1 h; high values mean tight binding
# Conditions: protein: recombinant; tags: N-terminal polyhistidine and DsRed monomer fusion (pET32a); label: CyDye5-dUTP incorporated in the synthesized complementary strand; 3' TTTTT single-stranded linker to array surface; dsDNA, one strand shown
# Procedure, shortened: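 Per-feature fluorescence intensity (arbitrary units), read on an Axon 4000B scanner, is the binding signal. Transcription factors carrying an N-terminal polyhistidine tag and DsRed fusion were expressed in E. coli BL21-CodonPlus and purified on Ni–NTA. A custom Agilent array, made double-stranded by primer extension with Cy5-dUTP and blocked with 2% BSA, was incubated with 200 nM protein in PBS, 2% BSA, salmon testes DNA and 50 µM zinc acetate at 25 °C for 1 h and then washed.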
row,Sequence,binding signal
1,TCTCTTTCTAAAGAAGTCAATCAGTCAATCTGGACCGTCCCGGAGTCACCTAGTGCAG,5610 fluorescence intensity (a.u.)
2,CGATCAATCTCTCTTTATTTATTTGCAGATCGATCAACCTCGGAGTCACCTAGTGCAG,5760 fluorescence intensity (a.u.)
3,GGCTACTTTCTTTTCTGATTAATATGTAGATTTATCTCGGCGGAGTCACCTAGTGCAG,3770 fluorescence intensity (a.u.)
4,TTTTCTAATCATCAGACATTAGTGTTCGTTTTGCTCTAGACGGAGTCACCTAGTGCAG,8020 fluorescence intensity (a.u.)
5,TCAACGTGAGGGTAATTGGCGCTGACATCCTTGCCATGTCCGGAGTCACCTAGTGCAG,6010 fluorescence intensity (a.u.)
6,CTACAGCCTAATTAATCCATAATCTAAACCGGGTCTTAGGCGGAGTCACCTAGTGCAG,7980 fluorescence intensity (a.u.)
7,ATCTAAATGTGTTGATAGAGGGCTGCAAGGAGATGAAGTGCGGAGTCACCTAGTGCAG,6660 fluorescence intensity (a.u.)
8,TTACCATAGTTGATTTGTGTTGGTCTGTAGTCCTGGCACACGGAGTCACCTAGTGCAG,5010 fluorescence intensity (a.u.)
9,TAAATTTACTATCACTGATTTAACCTATAGATGGGCTCACCGGAGTCACCTAGTGCAG,16600 fluorescence intensity (a.u.)
10,TTTTGCAATGTGATTTGCTGGTTTGGATAGTGGAGAAGTTCGGAGTCACCTAGTGCAG,3300 fluorescence intensity (a.u.)
11,ACTGATGGTAAATTTTCTATGAAGACCATTTGTAAAACCTCGGAGTCACCTAGTGCAG,8380 fluorescence intensity (a.u.)
12,TCCAATCAAACGACCATTCCTGTGTTTTGCAATCCTCTGTCGGAGTCACCTAGTGCAG,3300 fluorescence intensity (a.u.)
13,TTAAATTTAGAAATGATTTCAATGTCGGTTTCATTGCAGTCGGAGTCACCTAGTGCAG,22800 fluorescence intensity (a.u.)
14,ACTGTGATAGAGATAGACAGCAGCTTGAGCCGGCCGCTGGCGGAGTCACCTAGTGCAG,29300 fluorescence intensity (a.u.)
15,CAGAAACGTAATTAGATTCGGTTAATTAAGCGCCGATATACGGAGTCACCTAGTGCAG,28200 fluorescence intensity (a.u.)
16,TGTGATGGAACAGAGTGACAATTAATGCACATGTAATAGCCGGAGTCACCTAGTGCAG,14200 fluorescence intensity (a.u.)
17,CTTTGATCAATGTTAGATTTAATAAAATTGATTTGGTGGTCGGAGTCACCTAGTGCAG,18900 fluorescence intensity (a.u.)
18,GCTTACTCACTAATTTTATCTATAAATGGATTCTCCGGGTCGGAGTCACCTAGTGCAG,5050 fluorescence intensity (a.u.)
19,ACTTAATGAGTGGACACAAAACCATATCCTCTAGCAAGATCGGAGTCACCTAGTGCAG,5240 fluorescence intensity (a.u.)
20,GCCCCTGAATTGACAAGTATTCTCCATTTGGGCCACTGTTCGGAGTCACCTAGTGCAG,10600 fluorescence intensity (a.u.)
21,AAGTTTGATTAAAATTGGAACGATGTGATGGAAAAGTTAGCGGAGTCACCTAGTGCAG,17300 fluorescence intensity (a.u.)

row,Sequence,binding signal
1,TTAGGGACATAAATTGATCTTGTTTTAATAGTTTGGGATGCGGAGTCACCTAGTGCAG,4650 fluorescence intensity (a.u.)
2,GGGGAGATAGAGAAGATTAGGAAGATACGCAAAACGAGGTCGGAGTCACCTAGTGCAG,5680 fluorescence intensity (a.u.)
3,CCTCCATCATGAGCTCCAATTAGCCGCACACCGATCCCCTCGGAGTCACCTAGTGCAG,6160 fluorescence intensity (a.u.)
4,CCTCTATTACCGCCTGTCATCTGGGCCCACGCTAATACCGCGGAGTCACCTAGTGCAG,5320 fluorescence intensity (a.u.)
5,TCCCATTGATTTGATCCAGCTAATTAATTAATTCGATCCACGGAGTCACCTAGTGCAG,49900 fluorescence intensity (a.u.)
6,CTTTCATTTATATAATTAGTTTTATAAGTAGTCTATATTTCGGAGTCACCTAGTGCAG,4950 fluorescence intensity (a.u.)
7,AATGATGACATGATATTAAGTTGATGCATGGAAAACAAGACGGAGTCACCTAGTGCAG,5030 fluorescence intensity (a.u.)
8,TATTAAATTTGTAGTTTTATGATACTTAGCCTTAAACGTACGGAGTCACCTAGTGCAG,8070 fluorescence intensity (a.u.)
9,TGCATGAAATTGGGCTATCCAATTAGCTTGTTGTTTGCTTCGGAGTCACCTAGTGCAG,3180 fluorescence intensity (a.u.)
10,ATCACCAGAAGCGTACAGATTAATTAATCATTTTCTCGATCGGAGTCACCTAGTGCAG,4160 fluorescence intensity (a.u.)
11,TGATTAATTGTCTCATTGTTCAGCCAATCAACGGTACAAGCGGAGTCACCTAGTGCAG,35600 fluorescence intensity (a.u.)
12,AAGTAAAATTCATGTCAAATTTGATATCCATGTTCAATAGCGGAGTCACCTAGTGCAG,3390 fluorescence intensity (a.u.)
13,GACAACAATCTAAAATTTACAAATTTTCTCAGGTTTTACTCGGAGTCACCTAGTGCAG,8350 fluorescence intensity (a.u.)
14,CACTAAATGGGCTAGATTTGACTGGGCCGATGCGGAGCCACGGAGTCACCTAGTGCAG,18200 fluorescence intensity (a.u.)
15,ATCAAATCAATCAAAGCTCTTTTATGATTTTGTCTCATCGCGGAGTCACCTAGTGCAG,23900 fluorescence intensity (a.u.)
16,AAACAAATTTATGGGGCGTAGAAGGGATTGGGTGAAATTACGGAGTCACCTAGTGCAG,7180 fluorescence intensity (a.u.)
17,TGTGCCTAATTTGTTTTGATCTAAAATTTATAAGGGAATTCGGAGTCACCTAGTGCAG,12900 fluorescence intensity (a.u.)
18,TAGAGGGTGTGGATAGTGATTGAGTGGGATTTAGGTCCTCCGGAGTCACCTAGTGCAG,5150 fluorescence intensity (a.u.)
19,AAAGATTTAATTCTTACAAACACAACCGCGTGTAATCGGACGGAGTCACCTAGTGCAG,4570 ± 557 fluorescence intensity (a.u.)
20,TGTCAATGTTTTAGGTTCTCATAGTAAATACTAACATCCTCGGAGTCACCTAGTGCAG,3970 fluorescence intensity (a.u.)
21,ATAAAATTAAAGTAAATGTGATACAAACGTGGCATGTTTGCGGAGTCACCTAGTGCAG,8490 fluorescence intensity (a.u.)
